Here are results for 102 sequences from a collection of fitness landscapes (doi:10.1038/s41467-024-54723-y).

The full ranking holds about 18,000 sequences; the median of “TetR repression strength (sort-seq, GFP reporter)” is about 0.23, and the highest 2% start at about 0.68. Some of the results follow.

For this assay, the target named is TetR (class B, Tn10) (UniProt P04483). Kind of assay: TetR repression strength (sort-seq, GFP reporter) (relative to tetO2 = 1); higher = stronger repression. As to conditions: E. coli. The essentials: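 Escherichia coli SIG10-MAX cells carried a low-copy plasmid library in which eight operator positions were randomized between a constitutive promoter and sfGFP, and TetR was expressed constitutively. After 5 h of growth at 37 °C in LB with 50 µg/mL chloramphenicol, 10^6 cells were FACS-sorted into 13 fluorescence bins, and each bin was Illumina-sequenced. Repression strength was the top bin index plus one minus the read-weighted mean bin, divided by the value for the unaltered operator. Across three independent transformations, only library members with ≥30 reads in every replicate and a CV ≤0.5 were averaged.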
UniProt P04483, sequence (P04483 whole entry): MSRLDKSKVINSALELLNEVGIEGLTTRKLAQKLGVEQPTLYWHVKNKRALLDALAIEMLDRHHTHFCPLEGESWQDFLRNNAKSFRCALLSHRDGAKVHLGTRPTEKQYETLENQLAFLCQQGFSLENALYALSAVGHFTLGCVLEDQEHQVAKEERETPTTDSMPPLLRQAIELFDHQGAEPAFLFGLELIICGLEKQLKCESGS
TCCCGTAGAGTTGGAGAGA returned a TetR repression strength of 0.228.
TCCCTACAAGTGTCGGAGA: the TetR repression strength came out at 0.104.
Then TCCCGCTGAGTTTGTGAGA, with 0.158.
For TCCCACACAGTTTGTGAGA the value was 0.375.
For the sequence TCCCGCCCAGTGGCAGAGA, the TetR repression strength came to 0.305.
Sequence TCCCGCTCAGTACTTGAGA gave a TetR repression strength of 0.241.
In turn, TCCCTCAGAGTGCTGGAGA yielded a TetR repression strength of 0.475.
Then TCCCCGGCAGTATGTGAGA, with 0.189.
For TCCCGAAGAGTCGTAGAGA the value was 0.373; for TCCCGATCAGTCGATGAGA, 0.309; for TCCCTAGGAGTGAAAGAGA, 0.411.
For TCCCTTCTAGTCTCCGAGA the value was 0.382; for TCCCGCGTAGTCGGTGAGA, 0.167.
With TCCCAGATAGTTTAAGAGA, the TetR repression strength came to 0.238.
For TCCCTATTAGTCGAGGAGA the value was 0.35.
In turn, TCCCGCGGAGTAATGGAGA had a TetR repression strength of 0.167.
For TCCCCGCCAGTCCGCGAGA the value was 0.233; for TCCCAGTTAGTGGTGGAGA, 0.203.
The sequence TCCCTGATAGTTCGTGAGA came in with a TetR repression strength of 0.288.
Then TCCCTGACAGTGGGTGAGA, with 0.155; and TCCCGTTGAGTTTGCGAGA, with 0.167.
On to TCCCTAGCAGTGCTTGAGA, for which the TetR repression strength worked out at 0.321.
For TCCCACGCAGTGTCCGAGA the value was 0.242; for TCCCAAGGAGTTGTTGAGA, 0.331.
As for TCCCTAGTAGTAGTGGAGA, the TetR repression strength was 0.159.
Then TCCCTGGAAGTGATAGAGA, with 0.473; and TCCCCTCAAGTGTTAGAGA, with 0.194.
For TCCCGCTAAGTGTGTGAGA the value was 0.243; for TCCCAGCCAGTTAAGGAGA, 0.137.
Regarding TCCCGAGGAGTGGCTGAGA, the TetR repression strength is 0.0686.
For TCCCTCTTAGTTGCGGAGA the value was 0.21; for TCCCGTTCAGTTCTGGAGA, 0.17; for TCCCGTTGAGTGGTGGAGA, 0.158.
Regarding TCCCCTAGAGTCAATGAGA, the TetR repression strength came out at 0.594.
With TCCCGCTAAGTTGCCGAGA, the TetR repression strength worked out at 0.248.
TCCCATCGAGTCGGAGAGA came in with a TetR repression strength of 0.0897.
Then TCCCAGGAAGTGAGGGAGA, with 0.207; and TCCCGGGGAGTCGGCGAGA, with 0.152.
As to TCCCATATAGTGGTTGAGA, the TetR repression strength is 0.011.
Regarding TCCCACCCAGTGGAGGAGA, the TetR repression strength turned out to be 0.207.
Then TCCCCGCCAGTACGTGAGA, with 0.443; and TCCCGTTCAGTGAAGGAGA, with 0.518; and TCCCAAGTAGTTTATGAGA, with 0.325.
Sequence TCCCAATTAGTGTAAGAGA yielded a TetR repression strength of 0.252.
For the sequence TCCCCATAAGTCATCGAGA, the TetR repression strength was 0.214.
TCCCTGTAAGTAAATGAGA: the TetR repression strength is 0.264.
For TCCCACTCAGTAGGTGAGA the value was 0.104; for TCCCCTGCAGTGTCGGAGA, 0.285.
Turning to TCCCGGTAAGTTTGGGAGA, the TetR repression strength came to 0.131.
Then TCCCGTTTAGTAGTTGAGA, with 0.028; and TCCCCGCAAGTAGGTGAGA, with 0.0622.
For TCCCAGGTAGTAGGTGAGA the value was 0.223; for TCCCAGCTAGTTACTGAGA, 0.13; for TCCCTGTCAGTCGTGGAGA, 0.251.
The sequence TCCCCGGCAGTGCCCGAGA showed a TetR repression strength of 0.267.
Then TCCCTAACAGTTCTAGAGA, with 0.328.
Then TCCCTCTCAGTGACAGAGA, with 0.607.
Sequence TCCCCGTCAGTGTCGGAGA came in with a TetR repression strength of 0.17.
For the sequence TCCCCGCGAGTGTTAGAGA, the TetR repression strength came out at 0.124.
The sequence TCCCTGCTAGTAGGTGAGA had a TetR repression strength of 0.331.
The sequence TCCCTCAGAGTTTATGAGA displayed a TetR repression strength of 0.104.
For TCCCAGAGAGTTCAGGAGA, the TetR repression strength was 0.446.
On to TCCCAGATAGTCTAGGAGA, for which the TetR repression strength amounted to 0.404.
Then TCCCCAGAAGTGATTGAGA, with 1.1.
For TCCCCTCCAGTTCACGAGA the value was 0.329; for TCCCGTGTAGTAACCGAGA, 0.276.
In turn, TCCCTAACAGTATTGGAGA gave a TetR repression strength of 0.194.
TCCCTGCAAGTCCTAGAGA came in with a TetR repression strength of 0.128.
As to TCCCAGCTAGTATTGGAGA, the TetR repression strength was found to be 0.41.
Then TCCCTGAGAGTATGCGAGA, with 0.0898.
Then TCCCCGGTAGTCCTGGAGA, with 0.0633; and TCCCTGATAGTAGATGAGA, with 0.498; and TCCCATACAGTATTCGAGA, with 0.274.
TCCCATCAAGTGGTGGAGA came in with a TetR repression strength of 0.194.
As to TCCCGCCGAGTAACCGAGA, the TetR repression strength came out at 0.0406.
Sequence TCCCGGCAAGTTTGAGAGA gave a TetR repression strength of 0.238.
In turn, TCCCGAAGAGTTCGGGAGA returned a TetR repression strength of 0.225.
TCCCTTCGAGTTCTTGAGA gave a TetR repression strength of 0.241.
In turn, TCCCTGAGAGTCCTAGAGA yielded a TetR repression strength of 0.0655.
Consider TCCCCTCAAGTCTTAGAGA, for which the TetR repression strength stood at 0.372.
Then TCCCAGACAGTGTTTGAGA, with 0.283; and TCCCTACTAGTCGCTGAGA, with 0.319.
Then TCCCGAGCAGTTGGGGAGA, with 0.142.
For TCCCTGAAAGTCCTAGAGA the value was 0.282; for TCCCTTACAGTAATCGAGA, 0.276.
For TCCCTCCAAGTCCCAGAGA, the TetR repression strength was determined as 0.375.
The sequence TCCCAATAAGTTGCTGAGA displayed a TetR repression strength of 0.262.
Sequence TCCCCCTAAGTAACCGAGA registered a TetR repression strength of 0.418.
Consider TCCCGGTCAGTGTCTGAGA, for which the TetR repression strength came out at 0.228.
For TCCCTAGGAGTCTTCGAGA the value was 0.093; for TCCCCGATAGTTATTGAGA, 0.38.
TCCCGTTGAGTTCGCGAGA came in with a TetR repression strength of 0.376.
TCCCTATTAGTGACCGAGA: the TetR repression strength was 0.582.
For TCCCGGGGAGTGGGCGAGA the value was 0.225.
TCCCTGGGAGTAACAGAGA yielded a TetR repression strength of 0.221.
For TCCCCGTAAGTGTAGGAGA the value was 0.0549; for TCCCGCTGAGTATGTGAGA, 0.214; for TCCCGATTAGTCTGTGAGA, 0.207.
For TCCCTGGTAGTGTGTGAGA the value was 0.225; for TCCCGCATAGTATTCGAGA, 0.352.
For TCCCCGCGAGTTGTGGAGA the value was 0.162; for TCCCTCAGAGTTGGCGAGA, 0.104.
